Data as given in patent US20100221257A1 (AstraZeneca / MedImmune, published 2010).

Experiments:
[1] = target: T1, human histidine tagged (HIS) IL1RFc fusion protein (human); experiment: HTRF receptor-ligand assay, inhibiting HIS FLAG IL-1β binding to human HIS IL1RFc
T1 construct: Biotinylated or cryptate labelled in some assays; also called human HIS IL1RFc; huIL-1R1-Fc

[2] = target: T2, human IL-1R1, endogenous on human cells (HeLa cells; whole blood) (human, UniProt P14778 18-569); experiment: cell-based or functional assay
T2 sequence (looked up): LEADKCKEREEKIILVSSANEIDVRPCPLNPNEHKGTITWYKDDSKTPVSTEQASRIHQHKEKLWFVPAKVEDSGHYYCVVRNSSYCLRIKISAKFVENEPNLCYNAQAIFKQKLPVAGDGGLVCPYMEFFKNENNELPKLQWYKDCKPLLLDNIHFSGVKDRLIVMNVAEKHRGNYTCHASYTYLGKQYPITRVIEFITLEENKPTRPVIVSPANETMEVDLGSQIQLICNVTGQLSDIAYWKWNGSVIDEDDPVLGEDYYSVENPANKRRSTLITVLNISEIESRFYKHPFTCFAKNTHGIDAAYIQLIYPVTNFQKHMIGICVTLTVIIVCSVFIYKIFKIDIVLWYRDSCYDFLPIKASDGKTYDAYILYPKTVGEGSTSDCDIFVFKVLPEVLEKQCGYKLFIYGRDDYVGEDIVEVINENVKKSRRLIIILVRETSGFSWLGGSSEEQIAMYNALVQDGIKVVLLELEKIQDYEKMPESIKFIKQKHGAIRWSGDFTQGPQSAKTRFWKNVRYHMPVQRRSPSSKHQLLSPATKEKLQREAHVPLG

[3] = target: T3, cynomolgus IL-1R1, endogenous on CYNOM-K1 cells (cynomolgus monkey, UniProt A0A7N9CMI5 18-569); experiment: cell-based or functional assay
T3 sequence: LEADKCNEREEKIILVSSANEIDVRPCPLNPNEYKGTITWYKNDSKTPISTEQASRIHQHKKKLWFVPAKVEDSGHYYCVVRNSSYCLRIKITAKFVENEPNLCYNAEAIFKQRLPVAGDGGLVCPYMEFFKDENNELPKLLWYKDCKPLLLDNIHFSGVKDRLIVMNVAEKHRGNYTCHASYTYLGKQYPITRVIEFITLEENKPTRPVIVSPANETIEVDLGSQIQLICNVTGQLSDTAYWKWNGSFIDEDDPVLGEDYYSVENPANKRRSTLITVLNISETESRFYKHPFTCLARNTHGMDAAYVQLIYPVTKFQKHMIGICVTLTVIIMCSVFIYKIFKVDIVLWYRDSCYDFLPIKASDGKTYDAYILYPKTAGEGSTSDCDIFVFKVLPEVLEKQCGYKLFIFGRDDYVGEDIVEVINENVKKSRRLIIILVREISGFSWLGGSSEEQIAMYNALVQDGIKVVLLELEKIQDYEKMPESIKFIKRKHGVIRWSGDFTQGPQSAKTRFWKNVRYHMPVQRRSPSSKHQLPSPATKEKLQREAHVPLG

[4] = target: T2, human IL-1R1, endogenous on human cells …; experiment: cell-based or functional assay; remark: listed apart in the source
[5] = target: T1, human histidine tagged (HIS) IL1RFc …; experiment: HTRF receptor-ligand assay, inhibiting HIS FLAG IL-1Ra binding to cryptate labelled human HIS IL1RFc

B1: Kineret (anakinra), recombinant nonglycosylated human IL-1Ra (ligand)
chain: not shown
notes: mature; Bought from a pharmacy outlet; also called IL-1 receptor antagonist
IC50 [1]: 0.323 nM
IC50, inhibition of IL-1 alpha induced IL-8 release in HeLa cells (N = 3) [2]: 0.0017 nM
IC50, inhibition of IL-1 beta induced IL-8 release in HeLa cells (run with the GL IgG2 set, N = 5-6) [2]: 0.002 nM
IC50, inhibition of IL-1 beta induced IL-8 release in HeLa cells (run with the IgG1 set, N = 6-7) [2]: 0.0062 nM
IC50, inhibition of IL-1β induced IL-8 release from CYNOM-K1 cells, experiment 1 [3]: 0.2 nM
IC50, inhibition of IL-1β induced IL-8 release from CYNOM-K1 cells, experiment 2 [3]: 0.8 nM
IC50, inhibition of human IL-1β induced IL-8 release from HeLa cells [4]: 0.01 nM
IC50 [5]: 0.323 nM
